# Reference: the supplement of paper PMC8728848
# Some of the results follow.
# B1: Epa3 (Candida glabrata), Q6VBI8_CANGB (protein)
# chain: MGSSHHHHHHSSGLVPRGSHMNDLGFSLFEKRELSSQNPFGYPIGCSPQDVAIIPGLTMELYSYPIVSGTPPNCYDASYVDPEYPRTGYLKRKMVGKSTGVTGNLNYKYSVEKACMVKYGNLPAGYNYNEPLTVSNFTMILYGYFKAQTTGLHTFFVNADDLLYINFGAGNAFDCCKREDSKTKLGEYVAYDIWHVDSSKNKVSLFLEKDLYYPIRMFFNNIGKDSSLDLSFSVNGATDQISDFSGYLYSVPDQPDTCPAHIGYDTTCR
# Assays:
# Assay in all cases: glycan array binding signal (z-score within array); higher = stronger binding
# Details in all cases: glycan notation: IUPAC condensed, linker removed
# [1] = molecular target: Fuc(a1-2)Gal6S(b1-3)GlcNAc
# Outline: (§1)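 The binding signal is a Z-score computed within each array. Data were drawn from 3228 arrays in the Consortium for Functional Glycomics database, restricted to those with a known protein sequence. Scores were averaged over arrays of the same protein sequence at different concentrations or buffers, and over linkers, and negative values can be taken as non-binding.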
# [2] = molecular target: Fuc(a1-2)Gal6S(b1-3)GlcNAc6S
# Outline: as §1
# Fuc(a1-2)Gal6S(b1-4)Glc = molecular target: Fuc(a1-2)Gal6S(b1-4)Glc
# Outline: as §1
# [3] = molecular target: Fuc(a1-2)Gal6S(b1-4)Glc6S
# Outline: as §1
# Fuc(a1-2)[Gal(a1-3)]Gal = molecular target: Fuc(a1-2)[Gal(a1-3)]Gal
# Outline: as §1
# [4] = molecular target: Fuc(a1-2)[Gal(a1-3)]Gal(b1-3)GalNAc
# Outline: as §1
# [5] = molecular target: Fuc(a1-2)[Gal(a1-3)]Gal(b1-3)GalNAc(b1-3)Gal(a1-4)Gal(b1-4)Glc
# Outline: as §1
# [6] = molecular target: Fuc(a1-2)[Gal(a1-3)]Gal(b1-3)GlcNAc
# Outline: as §1
# [7] = molecular target: Fuc(a1-2)[Gal(a1-3)]Gal(b1-3)GlcNAc(b1-2)Man(a1-3)[Fuc(a1-2)[Gal(a1-3)]Gal(b1-3)GlcNAc(b1-2)Man(a1-6)]Man(b1-4)GlcNAc(b1-4)GlcNAc
# Outline: as §1
# [8] = molecular target: Fuc(a1-2)[Gal(a1-3)]Gal(b1-3)GlcNAc(b1-2)Man(a1-3)[Fuc(a1-2)[Gal(a1-3)]Gal(b1-3)GlcNAc(b1-2)Man(a1-6)]Man(b1-4)GlcNAc(b1-4)[Fuc(a1-6)]GlcNAc
# Outline: as §1
# [9] = molecular target: Fuc(a1-2)[Gal(a1-3)]Gal(b1-3)GlcNAc(b1-3)GalNAc
# Outline: as §1
# [10] = molecular target: Fuc(a1-2)[Gal(a1-3)]Gal(b1-3)GlcNAc(b1-6)GalNAc
# Outline: as §1
# [11] = molecular target: Fuc(a1-2)[Gal(a1-3)]Gal(b1-4)Glc
# Outline: as §1
# [12] = molecular target: Fuc(a1-2)[Gal(a1-3)]Gal(b1-4)GlcNAc
# Outline: as §1
# [13] = molecular target: Fuc(a1-2)[Gal(a1-3)]Gal(b1-4)GlcNAc(b1-2)Man
# Outline: as §1
# [14] = molecular target: Fuc(a1-2)[Gal(a1-3)]Gal(b1-4)GlcNAc(b1-2)Man(a1-3)[Fuc(a1-2)[Gal(a1-3)]Gal(b1-4)GlcNAc(b1-2)Man(a1-6)]Man(b1-4)GlcNAc(b1-4)GlcNAc
# Outline: as §1
# [15] = molecular target: Fuc(a1-2)[Gal(a1-3)]Gal(b1-4)GlcNAc(b1-2)Man(a1-3)[Fuc(a1-2)[Gal(a1-3)]Gal(b1-4)GlcNAc(b1-2)Man(a1-6)]Man(b1-4)GlcNAc(b1-4)[Fuc(a1-6)]GlcNAc
# Outline: as §1
# [16] = molecular target: Fuc(a1-2)[Gal(a1-3)]Gal(b1-4)GlcNAc(b1-3)GalNAc
# Outline: as §1
# [17] = molecular target: Fuc(a1-2)[Gal(a1-3)]Gal(b1-4)GlcNAc(b1-3)[Fuc(a1-2)[Gal(a1-3)]Gal(b1-4)GlcNAc(b1-6)]GalNAc
# Outline: as §1
# [18] = molecular target: Fuc(a1-2)[Gal(a1-3)]Gal(b1-4)GlcNAc(b1-6)GalNAc
# Outline: as §1
# [19] = molecular target: Fuc(a1-2)[Gal(a1-3)]Gal(b1-4)[Fuc(a1-3)]Glc
# Outline: as §1
# [20] = molecular target: Fuc(a1-2)[Gal(a1-3)]Gal(b1-4)[Fuc(a1-3)]GlcNAc
# Outline: as §1
# [21] = molecular target: Fuc(a1-2)[Gal(a1-3)]Gal(b1-4)[Fuc(a1-3)]GlcNAc(b1-3)GalNAc
# Outline: as §1
# [22] = molecular target: Fuc(a1-2)[Gal(a1-4)]Gal(b1-4)GlcNAc
# Outline: as §1
# [23] = molecular target: Fuc(a1-2)[GalNAc(a1-3)]Gal
# Outline: as §1
# [24] = molecular target: Fuc(a1-2)[GalNAc(a1-3)]Gal(b1-3)GalNAc(a1-3)[Fuc(a1-2)]Gal(b1-4)GlcNAc
# Outline: as §1
# [25] = molecular target: Fuc(a1-2)[GalNAc(a1-3)]Gal(b1-3)GalNAc(b1-3)Gal(a1-4)Gal(b1-4)Glc
# Outline: as §1
# [26] = molecular target: Fuc(a1-2)[GalNAc(a1-3)]Gal(b1-3)GlcNAc
# Outline: as §1
# [27] = molecular target: Fuc(a1-2)[GalNAc(a1-3)]Gal(b1-3)GlcNAc(b1-2)Man(a1-3)[Fuc(a1-2)[GalNAc(a1-3)]Gal(b1-3)GlcNAc(b1-2)Man(a1-6)]Man(b1-4)GlcNAc(b1-4)GlcNAc
# Outline: as §1
# [28] = molecular target: Fuc(a1-2)[GalNAc(a1-3)]Gal(b1-3)GlcNAc(b1-2)Man(a1-3)[Fuc(a1-2)[GalNAc(a1-3)]Gal(b1-3)GlcNAc(b1-2)Man(a1-6)]Man(b1-4)GlcNAc(b1-4)[Fuc(a1-6)]GlcNAc
# Outline: as §1
# [29] = molecular target: Fuc(a1-2)[GalNAc(a1-3)]Gal(b1-3)GlcNAc(b1-3)GalNAc
# Outline: as §1
# [30] = molecular target: Fuc(a1-2)[GalNAc(a1-3)]Gal(b1-3)GlcNAc(b1-6)GalNAc
# Outline: as §1
# [31] = molecular target: Fuc(a1-2)[GalNAc(a1-3)]Gal(b1-4)Glc
# Outline: as §1
# [32] = molecular target: Fuc(a1-2)[GalNAc(a1-3)]Gal(b1-4)GlcNAc
# Outline: as §1
# [33] = molecular target: Fuc(a1-2)[GalNAc(a1-3)]Gal(b1-4)GlcNAc(b1-2)Man
# Outline: as §1
# [34] = molecular target: Fuc(a1-2)[GalNAc(a1-3)]Gal(b1-4)GlcNAc(b1-2)Man(a1-3)[Fuc(a1-2)[GalNAc(a1-3)]Gal(b1-4)GlcNAc(b1-2)Man(a1-6)]Man(b1-4)GlcNAc(b1-4)GlcNAc
# Outline: as §1
# [35] = molecular target: Fuc(a1-2)[GalNAc(a1-3)]Gal(b1-4)GlcNAc(b1-2)Man(a1-3)[Fuc(a1-2)[GalNAc(a1-3)]Gal(b1-4)GlcNAc(b1-2)Man(a1-6)]Man(b1-4)GlcNAc(b1-4)[Fuc(a1-6)]GlcNAc
# Outline: as §1
# [36] = molecular target: Fuc(a1-2)[GalNAc(a1-3)]Gal(b1-4)GlcNAc(b1-3)Gal(b1-4)GlcNAc
# Outline: as §1
# [37] = molecular target: Fuc(a1-2)[GalNAc(a1-3)]Gal(b1-4)GlcNAc(b1-3)Gal(b1-4)GlcNAc(b1-3)Gal(b1-4)GlcNAc
# Outline: as §1
# [38] = molecular target: Fuc(a1-2)[GalNAc(a1-3)]Gal(b1-4)GlcNAc(b1-3)GalNAc
# Outline: as §1
# [39] = molecular target: Fuc(a1-2)[GalNAc(a1-3)]Gal(b1-4)GlcNAc(b1-3)[Fuc(a1-2)[GalNAc(a1-3)]Gal(b1-4)GlcNAc(b1-6)]GalNAc
# Outline: as §1
# [40] = molecular target: Fuc(a1-2)[GalNAc(a1-3)]Gal(b1-4)GlcNAc(b1-6)GalNAc
# Outline: as §1
# [41] = molecular target: Fuc(a1-2)[GalNAc(a1-3)]Gal(b1-4)[Fuc(a1-3)]GlcNAc
# Outline: as §1
# [42] = molecular target: Fuc(a1-2)[GalNAc(a1-3)]Gal(b1-4)[Fuc(a1-3)]GlcNAc(b1-3)GalNAc
# Outline: as §1
# [43] = molecular target: Fuc(a1-2)[GalNAc(a1-4)]Gal(b1-4)GlcNAc
# Outline: as §1
binder,measurement,setting,value
B1,glycan array binding signal (z-score),[1],-0.369
same,glycan array binding signal (z-score),[2],0.201
same,glycan array binding signal (z-score),Fuc(a1-2)Gal6S(b1-4)Glc,-0.079
same,glycan array binding signal (z-score),[3],0.004
same,glycan array binding signal (z-score),Fuc(a1-2)[Gal(a1-3)]Gal,-0.005
same,glycan array binding signal (z-score),[4],-0.246
same,glycan array binding signal (z-score),[5],-0.278
same,glycan array binding signal (z-score),[6],-0.212
same,glycan array binding signal (z-score),[7],-0.265
same,glycan array binding signal (z-score),[8],-0.254
same,glycan array binding signal (z-score),[9],-0.333
same,glycan array binding signal (z-score),[10],-0.275
same,glycan array binding signal (z-score),[11],0.169
same,glycan array binding signal (z-score),[12],-0.242
same,glycan array binding signal (z-score),[13],-0.148
same,glycan array binding signal (z-score),[14],-0.263
same,glycan array binding signal (z-score),[15],-0.278
same,glycan array binding signal (z-score),[16],-0.324
same,glycan array binding signal (z-score),[17],-0.123
same,glycan array binding signal (z-score),[18],-0.159
same,glycan array binding signal (z-score),[19],-0.25
same,glycan array binding signal (z-score),[20],0.113
same,glycan array binding signal (z-score),[21],0.123
same,glycan array binding signal (z-score),[22],0.131
same,glycan array binding signal (z-score),[23],-0.223
same,glycan array binding signal (z-score),[24],-0.258
same,glycan array binding signal (z-score),[25],-0.272
same,glycan array binding signal (z-score),[26],-0.201
same,glycan array binding signal (z-score),[27],-0.392
same,glycan array binding signal (z-score),[28],-0.205
same,glycan array binding signal (z-score),[29],-0.088
same,glycan array binding signal (z-score),[30],-0.284
same,glycan array binding signal (z-score),[31],-0.291
same,glycan array binding signal (z-score),[32],-0.312
same,glycan array binding signal (z-score),[33],-0.275
same,glycan array binding signal (z-score),[34],-0.279
same,glycan array binding signal (z-score),[35],-0.254
same,glycan array binding signal (z-score),[36],-0.246
same,glycan array binding signal (z-score),[37],-0.236
same,glycan array binding signal (z-score),[38],-0.304
same,glycan array binding signal (z-score),[39],-0.386
same,glycan array binding signal (z-score),[40],-0.24
same,glycan array binding signal (z-score),[41],0.011
same,glycan array binding signal (z-score),[42],2.94
same,glycan array binding signal (z-score),[43],-0.177
